# Results taken from paper PMC5892938.
# The list shows a part of the results. At the low end of the ranking, values are background and their order means little.
# Target: GST-SBP-SLBP (stem-loop binding protein) (UniProt Q14493)
# Assay: targeted RNA Bind-n-Seq;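 further: DESeq read counts versus GST-SBP nonspecific binding control pulldown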
# Conditions: RBNS binding buffer: 25 mM Tris pH 7.5, 150 mM KCl, 3 mM MgCl2, 0.1% Tween, 0.5 mg/mL BSA, 1 mM DTT; 27 nM protein, 750 pM RNA pool; temperature not stated; high values mean tight binding
row,Sequence,binding signal (log2 fold change)
1,GGUCACGUCUCAAUCAACUCAUUCCCCAGGGAAACCCCUGGUAAACUCAACAGCUCGCAGUCAAG,0.0728
2,GGUCACGUCUCAAUCAACUCUACUUCCAGGGAAAUCCCUGGCAUAUUCAACAGCUCGCAGUCAAG,0.011
3,GGUCACGUCUCAAUCAACUCUUCCCCCAGGGAAAACCCUGGUAAAUUCAACAGCUCGCAGUCAAG,-0.156
4,GGUCACGUCUCAAUCAACUCAUUUCCAGGAGUUUCCUCCUGUAUUCUCAACAGCUCGCAGUCAAG,-0.0425
5,GGUCACGUCUCAAUCAACUCUAACGAGGGGGGGAAAACCCCUUUGCCCUCAUCAUCAACAGCUCGCAGUCAAG,-0.206
6,GGUCACGUCUCAAUCAACUCUUCUCCCAGGGAAAUCCCUGGCUUUUUCAACAGCUCGCAGUCAAG,0.237
7,GGUCACGUCUCAAUCAACUCUAUCCCCAGGGAAAGCCCUGGCUUAUUCAACAGCUCGCAGUCAAG,-0.108
8,GGUCACGUCUCAAUCAACUCUUUCGCCAGGGAAAUCCCUGGGUAUUUCAACAGCUCGCAGUCAAG,-0.106
9,GGUCACGUCUCAAUCAACUCACAAGAGGGGGGGAAAACCCCUUUGCCCUCAUUAUCAACAGCUCGCAGUCAAG,-0.0799
10,GGUCACGUCUCAAUCAACUCAAUUCCAGGAGUUUGCUCCUGCAUAUUCAACAGCUCGCAGUCAAG,-0.102
11,GGUCACGUCUCAAUCAACUCAACAGAGGGGGGGAAAACCCCUUUACCCUCACCAUCAACAGCUCGCAGUCAAG,0.341
12,GGUCACGUCUCAAUCAACUCAUCGUCAGGAGUUUUCUCCUGCAUUUUCAACAGCUCGCAGUCAAG,-0.00603
13,GGUCACGUCUCAAUCAACUCUUCCCCCAGGGAAAGCCCUGGUAUACUCAACAGCUCGCAGUCAAG,-0.247
14,GGUCACGUCUCAAUCAACUCAACUCCCAGGGAAAACCCUGGUUUUUUCAACAGCUCGCAGUCAAG,-0.0702
15,GGUCACGUCUCAAUCAACUCAAGUCCAGGAGUUUCCUCCUGUAAUUUCAACAGCUCGCAGUCAAG,0.0973
16,GGUCACGUCUCAAUCAACUCACACGAGGGGGGGAAAACCCCUUUGCCCUCAAAAUCAACAGCUCGCAGUCAAG,-0.155
17,GGUCACGUCUCAAUCAACUCAUCCUCAGGAGUUUUCUCCUGCUAUCUCAACAGCUCGCAGUCAAG,0.166
18,GGUCACGUCUCAAUCAACUCUCACGAGGGGGGGAAAACCCCUUUACCCUCAUAAUCAACAGCUCGCAGUCAAG,-0.285
19,GGUCACGUCUCAAUCAACUCAUUCUCCAGGGAAAUCCCUGGCAUAUUCAACAGCUCGCAGUCAAG,0.256
20,GGUCACGUCUCAAUCAACUCAUUCGAGGGGGGGAAAACCCCUUUACCCUCAUAAUCAACAGCUCGCAGUCAAG,-0.166
21,GGUCACGUCUCAAUCAACUCUUCCCCAGGAGUUUACUCCUGUAUUCUCAACAGCUCGCAGUCAAG,-0.0104
22,GGUCACGUCUCAAUCAACUCUAUCCCAGGAGUUUACUCCUGUAUUCUCAACAGCUCGCAGUCAAG,0.0741
23,GGUCACGUCUCAAUCAACUCUUCCUCAGGAGUUUCCUCCUGCUAUUUCAACAGCUCGCAGUCAAG,0.0337
24,GGUCACGUCUCAAUCAACUCCUCCGAGGGGGGGAAAACCCCUUUACCCUCAAAUUCAACAGCUCGCAGUCAAG,-0.0179
25,GGUCACGUCUCAAUCAACUCUAGUCCAGGAGUUUUCUCCUGCAUAUUCAACAGCUCGCAGUCAAG,-0.232

row,Sequence,binding signal (log2 fold change)
1,GGUCACGUCUCAAUCAACUCCAACGAGGGGGGGAAAACCCCUUUACCCUCAACAUCAACAGCUCGCAGUCAAG,-0.251
2,GGUCACGUCUCAAUCAACUCAAUCUCAGGAGUUUUCUCCUGCAAAGUCAACAGCUCGCAGUCAAG,0.0364
3,GGUCACGUCUCAAUCAACUCACUAGAGGGGGGGAAAACCCCUUUACCCUCGUCAUCAACAGCUCGCAGUCAAG,0.051
4,GGUCACGUCUCAAUCAACUCUAUAGAGGGGGGGAAAACCCCUUUGCCCUCAAACUCAACAGCUCGCAGUCAAG,-0.177
5,GGUCACGUCUCAAUCAACUCUAAGGAGGGGGGGAAAACCCCUUUACCCUCACACUCAACAGCUCGCAGUCAAG,0.396
6,GGUCACGUCUCAAUCAACUCUUCAGAGGGGGGGAAAACCCCUUUGCCCUCACAUUCAACAGCUCGCAGUCAAG,-0.0405
7,GGUCACGUCUCAAUCAACUCUUCCUCCAGGGAAACCCCUGGUAUUCUCAACAGCUCGCAGUCAAG,-0.118
8,GGUCACGUCUCAAUCAACUCUUUCUCAGGAGUUUUCUCCUGUUAACUCAACAGCUCGCAGUCAAG,0.0478
9,GGUCACGUCUCAAUCAACUCAUUUCCCAGGGAAAACCCUGGCUAUUUCAACAGCUCGCAGUCAAG,0.135
10,GGUCACGUCUCAAUCAACUCAACUUCAGGAGUUUCCUCCUGCUAUCUCAACAGCUCGCAGUCAAG,0.103
11,GGUCACGUCUCAAUCAACUCAUCUCCCAGGGAAAUCCCUGGUAAAUUCAACAGCUCGCAGUCAAG,0.0544
12,GGUCACGUCUCAAUCAACUCUUCCUCAGGAGUUUACUCCUGCAAUUUCAACAGCUCGCAGUCAAG,-0.219
13,GGUCACGUCUCAAUCAACUCAUUCCCCAGGGAAAGCCCUGGCAAUUUCAACAGCUCGCAGUCAAG,-0.015
14,GGUCACGUCUCAAUCAACUCAAUCUCAGGAGUUUCCUCCUGCAUAUUCAACAGCUCGCAGUCAAG,0.134
15,GGUCACGUCUCAAUCAACUCUCUCGAGGGGGGGAAAACCCCUUUGCCCUCAUUAUCAACAGCUCGCAGUCAAG,0.232
16,GGUCACGUCUCAAUCAACUCAUCUUCCAGGGAAAGCCCUGGCUAUUUCAACAGCUCGCAGUCAAG,-0.0644
17,GGUCACGUCUCAAUCAACUCCUAAGAGGGGGGGAAAACCCCUUUGCCCUCAUAUUCAACAGCUCGCAGUCAAG,-0.0961
18,GGUCACGUCUCAAUCAACUCUUUCUCCAGGGAAACCCCUGGCAAUCUCAACAGCUCGCAGUCAAG,0.0706
19,GGUCACGUCUCAAUCAACUCAUUCUCAGGAGUUUCCUCCUGCUAAUUCAACAGCUCGCAGUCAAG,0.0579
20,GGUCACGUCUCAAUCAACUCAUUUUCAGGAGUUUUCUCCUGUAUUCUCAACAGCUCGCAGUCAAG,-0.0182
21,GGUCACGUCUCAAUCAACUCUUCUUCCAGGGAAAUCCCUGGUAUAUUCAACAGCUCGCAGUCAAG,-0.113
22,GGUCACGUCUCAAUCAACUCACAAGAGGGGGGGAAAACCCCUUUACCCUCAUCAUCAACAGCUCGCAGUCAAG,-0.0139
23,GGUCACGUCUCAAUCAACUCUUCCUCCAGGGAAACCCCUGGUUUUCUCAACAGCUCGCAGUCAAG,-0.241
24,GGUCACGUCUCAAUCAACUCUUCCCCAGGAGUUUUCUCCUGCAAUGUCAACAGCUCGCAGUCAAG,0.0332
25,GGUCACGUCUCAAUCAACUCAUCCUCAGGAGUUUCCUCCUGUUUAGUCAACAGCUCGCAGUCAAG,0.0674

row,Sequence,binding signal (log2 fold change)
1,GGUCACGUCUCAAUCAACUCAUCUUCCAGGGAAAGCCCUGGUAUUUUCAACAGCUCGCAGUCAAG,-0.0279
2,GGUCACGUCUCAAUCAACUCUAAAGAGGGGGGGAAAACCCCUUUACCCUCAAUCUCAACAGCUCGCAGUCAAG,0.253
3,GGUCACGUCUCAAUCAACUCUUUUUCAGGAGUUUUCUCCUGUAAUUUCAACAGCUCGCAGUCAAG,0.112
4,GGUCACGUCUCAAUCAACUCAUUCUCCAGGGAAAGCCCUGGCUAACUCAACAGCUCGCAGUCAAG,-0.267
5,GGUCACGUCUCAAUCAACUCAGUCCCCAGGGAAAGCCCUGGUAUUUUCAACAGCUCGCAGUCAAG,-0.098
6,GGUCACGUCUCAAUCAACUCAAUUUCCAGGGAAAACCCUGGUUUACUCAACAGCUCGCAGUCAAG,0.148
7,GGUCACGUCUCAAUCAACUCUCCCGAGGGGGGGAAAACCCCUUUGCCCUCAAAAUCAACAGCUCGCAGUCAAG,0.0406
8,GGUCACGUCUCAAUCAACUCAACUCCCAGGGAAAUCCCUGGCUAAUUCAACAGCUCGCAGUCAAG,-0.141
9,GGUCACGUCUCAAUCAACUCUAUUUCCAGGGAAAUCCCUGGCUUAUUCAACAGCUCGCAGUCAAG,0.488
10,GGUCACGUCUCAAUCAACUCUACUUCCAGGGAAAACCCUGGUAUACUCAACAGCUCGCAGUCAAG,0.0356
11,GGUCACGUCUCAAUCAACUCAAUCUCCAGGGAAAUCCCUGGUUAACUCAACAGCUCGCAGUCAAG,-0.285
12,GGUCACGUCUCAAUCAACUCAAAAGAGGGGGGGAAAACCCCUUUACCCUCAAUUUCAACAGCUCGCAGUCAAG,0.263
13,GGUCACGUCUCAAUCAACUCAAUCCCCAGGGAAAACCCUGGUAAAUUCAACAGCUCGCAGUCAAG,-0.251
14,GGUCACGUCUCAAUCAACUCACUCGAGGGGGGGAAAACCCCUUUACCCUCAUAUUCAACAGCUCGCAGUCAAG,-0.0297
15,GGUCACGUCUCAAUCAACUCAAUCUCAGGAGUUUUCUCCUGUUUUCUCAACAGCUCGCAGUCAAG,0.0671
16,GGUCACGUCUCAAUCAACUCAUCUUCAGGAGUUUCCUCCUGUUAAUUCAACAGCUCGCAGUCAAG,-0.0664
17,GGUCACGUCUCAAUCAACUCUUCCUCCAGGGAAAUCCCUGGUUUACUCAACAGCUCGCAGUCAAG,-0.052
18,GGUCACGUCUCAAUCAACUCAUUUCCAGGAGUUUGCUCCUGCUAUUUCAACAGCUCGCAGUCAAG,0.0582
19,GGUCACGUCUCAAUCAACUCUUUUUCCAGGGAAAUCCCUGGUUUACUCAACAGCUCGCAGUCAAG,0.0958
20,GGUCACGUCUCAAUCAACUCUAUUUCCAGGGAAACCCCUGGCUUAUUCAACAGCUCGCAGUCAAG,0.0519
21,GGUCACGUCUCAAUCAACUCAAUCUCAGGAGUUUCCUCCUGCUUACUCAACAGCUCGCAGUCAAG,-0.0736
22,GGUCACGUCUCAAUCAACUCCAACGAGGGGGGGAAAACCCCUUUACCCUCACUUUCAACAGCUCGCAGUCAAG,0.215
23,GGUCACGUCUCAAUCAACUCAAUUUCCAGGGAAAGCCCUGGUUUUUUCAACAGCUCGCAGUCAAG,-0.0813
24,GGUCACGUCUCAAUCAACUCAAUCCCCAGGGAAAGCCCUGGCAUACUCAACAGCUCGCAGUCAAG,0.106
